From patent publication US20250064952A1 (ACCELERON PHARMA, published 2025)
Read-outs that look alike come from different tables or passages of the source.

Tests used:
Assay in all cases: cell-based or functional assay
BMP9 = biological target: T1, BMP9 (UniProt Q9UK05 320-429)
T1 sequence (looked up): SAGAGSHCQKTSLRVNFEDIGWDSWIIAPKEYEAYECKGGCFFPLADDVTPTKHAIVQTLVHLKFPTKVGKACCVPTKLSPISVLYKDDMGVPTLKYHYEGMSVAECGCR

GDF11 = biological target: T2, GDF11 (UniProt O95390 299-407)
T2 sequence (looked up): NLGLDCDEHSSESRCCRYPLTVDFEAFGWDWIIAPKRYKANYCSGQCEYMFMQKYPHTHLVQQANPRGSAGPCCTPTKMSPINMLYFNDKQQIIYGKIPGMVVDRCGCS

activin A [1] = biological target: T3, activin A (UniProt P08476 311-426)
T3 sequence (looked up): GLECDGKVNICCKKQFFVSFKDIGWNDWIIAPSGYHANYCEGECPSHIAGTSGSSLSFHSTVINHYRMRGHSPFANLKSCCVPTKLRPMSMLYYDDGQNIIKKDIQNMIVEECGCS

activin B = biological target: T4, activin B (UniProt P09529 293-407)
T4 sequence (looked up): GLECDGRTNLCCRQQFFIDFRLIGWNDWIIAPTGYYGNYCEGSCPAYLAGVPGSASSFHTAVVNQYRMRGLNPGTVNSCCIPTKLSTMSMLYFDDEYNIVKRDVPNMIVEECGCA

BMP10 = biological target: T5, BMP10 (UniProt O95393 317-424)
T5 sequence (looked up): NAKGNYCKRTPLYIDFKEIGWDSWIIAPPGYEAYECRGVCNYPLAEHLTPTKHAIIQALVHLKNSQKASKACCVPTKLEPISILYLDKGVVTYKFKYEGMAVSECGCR

activin A [2] = biological target: T3, activin A; remark: listed apart in the source

B1: ActRIIB(F82I)-G1Fc (Fc fusion)
chain: GRGEAETRECIYYNANWELERTNQSGLERCEGEQDKRLHCYASWRNSSGTIELVKKGCWLDDINCYDRQECVATEENPQVYFCCCEGNFCNERFTHLPEAGGPEVTYEPPPTAPTG[sequence of human IgG1 Fc and a few adjoining residues omitted]
IC50, A204 (CAGA)12 luciferase reporter (BMP9): 0.277 µg/mL | IC50, A204 (CAGA)12 luciferase reporter (GDF11): 0.009 µg/mL | IC50, A204 (CAGA)12 luciferase reporter (activin A [1]): 0.011 µg/mL

B2: ActRIIB(F82K)-G1Fc (Fc fusion)
chain: GRGEAETRECIYYNANWELERTNQSGLERCEGEQDKRLHCYASWRNSSGTIELVKKGCWLDDKNCYDRQECVATEENPQVYFCCCEGNFCNERFTHLPEAGGPEVTYEPPPTAPTG[sequence of human IgG1 Fc and a few adjoining residues omitted]
IC50, A204 (CAGA)12 luciferase reporter (BMP9): ~5 µg/mL | IC50, A204 (CAGA)12 luciferase reporter (GDF11): 0.015 µg/mL | IC50, A204 (CAGA)12 luciferase reporter (activin A [1]): 0.01 µg/mL

B3: ActRIIB(F82K-N83R)-G1Fc (Fc fusion)
chain: GRGEAETRECIYYNANWELERTNQSGLERCEGEQDKRLHCYASWRNSSGTIELVKKGCWLDDKRCYDRQECVATEENPQVYFCCCEGNFCNERFTHLPEAGGPEVTYEPPPTAPTG[sequence of human IgG1 Fc and a few adjoining residues omitted]
IC50, A204 (CAGA)12 luciferase reporter (activin B): 0.09 nM | IC50, A204 (CAGA)12 luciferase reporter (BMP10): 0.53 nM | IC50, A204 (CAGA)12 luciferase reporter (activin A [2]): 1.32 nM

B4: ActRIIB(K55A)-G1Fc (Fc fusion)
chain: GRGEAETRECIYYNANWELERTNQSGLERCEGEQDARLHCYASWRNSSGTIELVKKGCWLDDFNCYDRQECVATEENPQVYFCCCEGNFCNERFTHLPEAGGPEVTYEPPPTAPTG[sequence of human IgG1 Fc and a few adjoining residues omitted]
IC50, A204 (CAGA)12 luciferase reporter (BMP9): 0.122 µg/mL | IC50, A204 (CAGA)12 luciferase reporter (GDF11): 0.011 µg/mL | IC50, A204 (CAGA)12 luciferase reporter (activin A [1]): 0.015 µg/mL

B5: ActRIIB(K55E)-G1Fc (Fc fusion)
chain: GRGEAETRECIYYNANWELERTNQSGLERCEGEQDERLHCYASWRNSSGTIELVKKGCWLDDFNCYDRQECVATEENPQVYFCCCEGNFCNERFTHLPEAGGPEVTYEPPPTAPTG[sequence of human IgG1 Fc and a few adjoining residues omitted]
IC50, A204 (CAGA)12 luciferase reporter (BMP9): 0.29 µg/mL | IC50, A204 (CAGA)12 luciferase reporter (GDF11): 0.014 µg/mL | IC50, A204 (CAGA)12 luciferase reporter (activin A [1]): 0.019 µg/mL

B6: variant ActRIIB-Fc homodimer L79K (Fc fusion)
chain: GRGEAETRECIYYNANWELERTNQSGLERCEGEQDKRLHCYASWRNSSGTIELVKKGCWKDDFNCYDRQECVATEENPQVYFCCCEGNFCNERFTHLPEAGGPEVTYEPPPTAPTG[sequence of human IgG1 Fc and a few adjoining residues omitted]
IC50, A204 (CAGA)12 luciferase reporter (GDF11): 0.477 µg/mL

B7: variant ActRIIB-Fc homodimer F82W (Fc fusion)
chain: GRGEAETRECIYYNANWELERTNQSGLERCEGEQDKRLHCYASWRNSSGTIELVKKGCWLDDWNCYDRQECVATEENPQVYFCCCEGNFCNERFTHLPEAGGPEVTYEPPPTAPTG[sequence of human IgG1 Fc and a few adjoining residues omitted]
IC50, A204 (CAGA)12 luciferase reporter (GDF11): 0.276 µg/mL

B8: variant ActRIIB-Fc homodimer F82W/N83A (Fc fusion)
chain: GRGEAETRECIYYNANWELERTNQSGLERCEGEQDKRLHCYASWRNSSGTIELVKKGCWLDDWACYDRQECVATEENPQVYFCCCEGNFCNERFTHLPEAGGPEVTYEPPPTAPTG[sequence of human IgG1 Fc and a few adjoining residues omitted]
IC50, A204 (CAGA)12 luciferase reporter (BMP9): ~40 µg/mL | IC50, A204 (CAGA)12 luciferase reporter (GDF11): 0.389 µg/mL

B9: variant ActRIIB-Fc homodimer A24N (Fc fusion)
chain: GRGENETRECIYYNANWELERTNQSGLERCEGEQDKRLHCYASWRNSSGTIELVKKGCWLDDFNCYDRQECVATEENPQVYFCCCEGNFCNERFTHLPEAGGPEVTYEPPPTAPTG[sequence of human IgG1 Fc and a few adjoining residues omitted]
IC50, A204 (CAGA)12 luciferase reporter (BMP9): 0.409 µg/mL | IC50, A204 (CAGA)12 luciferase reporter (GDF11): 0.099 µg/mL | IC50, A204 (CAGA)12 luciferase reporter (activin A [1]): 0.128 µg/mL

B10: variant ActRIIB-Fc homodimer R40A (Fc fusion)
chain: GRGEAETRECIYYNANWELEATNQSGLERCEGEQDKRLHCYASWRNSSGTIELVKKGCWLDDFNCYDRQECVATEENPQVYFCCCEGNFCNERFTHLPEAGGPEVTYEPPPTAPTG[sequence of human IgG1 Fc and a few adjoining residues omitted]
IC50, A204 (CAGA)12 luciferase reporter (BMP9): 1.21 µg/mL | IC50, A204 (CAGA)12 luciferase reporter (GDF11): 0.591 µg/mL

B11: variant ActRIIB-Fc homodimer E50K (Fc fusion)
chain: GRGEAETRECIYYNANWELERTNQSGLERCKGEQDKRLHCYASWRNSSGTIELVKKGCWLDDFNCYDRQECVATEENPQVYFCCCEGNFCNERFTHLPEAGGPEVTYEPPPTAPTG[sequence of human IgG1 Fc and a few adjoining residues omitted]
IC50, A204 (CAGA)12 luciferase reporter (BMP9): 0.721 µg/mL | IC50, A204 (CAGA)12 luciferase reporter (GDF11): 0.18 µg/mL | IC50, A204 (CAGA)12 luciferase reporter (activin A [1]): 0.132 µg/mL

B12: variant ActRIIB-Fc homodimer E50P (Fc fusion)
chain: GRGEAETRECIYYNANWELERTNQSGLERCPGEQDKRLHCYASWRNSSGTIELVKKGCWLDDFNCYDRQECVATEENPQVYFCCCEGNFCNERFTHLPEAGGPEVTYEPPPTAPTG[sequence of human IgG1 Fc and a few adjoining residues omitted]
IC50, A204 (CAGA)12 luciferase reporter (BMP9): ~3 µg/mL | IC50, A204 (CAGA)12 luciferase reporter (GDF11): 0.638 µg/mL | IC50, A204 (CAGA)12 luciferase reporter (activin A [1]): 0.756 µg/mL

B13: variant ActRIIB-Fc homodimer E52A (Fc fusion)
chain: GRGEAETRECIYYNANWELERTNQSGLERCEGAQDKRLHCYASWRNSSGTIELVKKGCWLDDFNCYDRQECVATEENPQVYFCCCEGNFCNERFTHLPEAGGPEVTYEPPPTAPTG[sequence of human IgG1 Fc and a few adjoining residues omitted]
IC50, A204 (CAGA)12 luciferase reporter (BMP9): 0.359 µg/mL | IC50, A204 (CAGA)12 luciferase reporter (GDF11): 0.071 µg/mL | IC50, A204 (CAGA)12 luciferase reporter (activin A [1]): 0.198 µg/mL

B14: variant ActRIIB-Fc homodimer E52K (Fc fusion)
chain: GRGEAETRECIYYNANWELERTNQSGLERCEGKQDKRLHCYASWRNSSGTIELVKKGCWLDDFNCYDRQECVATEENPQVYFCCCEGNFCNERFTHLPEAGGPEVTYEPPPTAPTG[sequence of human IgG1 Fc and a few adjoining residues omitted]
IC50, A204 (CAGA)12 luciferase reporter (BMP9): ~10 µg/mL | IC50, A204 (CAGA)12 luciferase reporter (GDF11): 0.296 µg/mL | IC50, A204 (CAGA)12 luciferase reporter (activin A [1]): 0.762 µg/mL

B15: variant ActRIIB-Fc homodimer K55D (Fc fusion)
chain: GRGEAETRECIYYNANWELERTNQSGLERCEGEQDDRLHCYASWRNSSGTIELVKKGCWLDDFNCYDRQECVATEENPQVYFCCCEGNFCNERFTHLPEAGGPEVTYEPPPTAPTG[sequence of human IgG1 Fc and a few adjoining residues omitted]
IC50, A204 (CAGA)12 luciferase reporter (BMP9): 5.5 µg/mL | IC50, A204 (CAGA)12 luciferase reporter (GDF11): 0.365 µg/mL | IC50, A204 (CAGA)12 luciferase reporter (activin A [1]): 0.396 µg/mL

B16: variant ActRIIB-Fc homodimer K55R (Fc fusion)
chain: GRGEAETRECIYYNANWELERTNQSGLERCEGEQDRRLHCYASWRNSSGTIELVKKGCWLDDFNCYDRQECVATEENPQVYFCCCEGNFCNERFTHLPEAGGPEVTYEPPPTAPTG[sequence of human IgG1 Fc and a few adjoining residues omitted]
IC50, A204 (CAGA)12 luciferase reporter (BMP9): 0.777 µg/mL | IC50, A204 (CAGA)12 luciferase reporter (GDF11): 0.318 µg/mL | IC50, A204 (CAGA)12 luciferase reporter (activin A [1]): 0.206 µg/mL

B17: variant ActRIIB-Fc homodimer Y60K (Fc fusion)
chain: GRGEAETRECIYYNANWELERTNQSGLERCEGEQDKRLHCKASWRNSSGTIELVKKGCWLDDFNCYDRQECVATEENPQVYFCCCEGNFCNERFTHLPEAGGPEVTYEPPPTAPTG[sequence of human IgG1 Fc and a few adjoining residues omitted]
IC50, A204 (CAGA)12 luciferase reporter (GDF11): 0.414 µg/mL

B18: variant ActRIIB-Fc homodimer Y60P (Fc fusion)
chain: GRGEAETRECIYYNANWELERTNQSGLERCEGEQDKRLHCPASWRNSSGTIELVKKGCWLDDFNCYDRQECVATEENPQVYFCCCEGNFCNERFTHLPEAGGPEVTYEPPPTAPTG[sequence of human IgG1 Fc and a few adjoining residues omitted]
IC50, A204 (CAGA)12 luciferase reporter (GDF11): 0.544 µg/mL

B19: variant ActRIIB-Fc homodimer K74R (Fc fusion)
chain: GRGEAETRECIYYNANWELERTNQSGLERCEGEQDKRLHCYASWRNSSGTIELVRKGCWLDDFNCYDRQECVATEENPQVYFCCCEGNFCNERFTHLPEAGGPEVTYEPPPTAPTG[sequence of human IgG1 Fc and a few adjoining residues omitted]
IC50, A204 (CAGA)12 luciferase reporter (BMP9): 0.165 µg/mL | IC50, A204 (CAGA)12 luciferase reporter (GDF11): 0.045 µg/mL

B20: variant ActRIIB-Fc homodimer L79R (Fc fusion)
chain: GRGEAETRECIYYNANWELERTNQSGLERCEGEQDKRLHCYASWRNSSGTIELVKKGCWRDDFNCYDRQECVATEENPQVYFCCCEGNFCNERFTHLPEAGGPEVTYEPPPTAPTG[sequence of human IgG1 Fc and a few adjoining residues omitted]
IC50, A204 (CAGA)12 luciferase reporter (GDF11): 0.234 µg/mL
